# Some of the results follow.
# What was measured:
# Assay in all cases: glycan array binding signal (z-score within array); higher = stronger binding
# Details in all cases: glycan notation: IUPAC condensed, linker removed
# [1] = target: Gal(b1-4)GlcNAc(b1-3)Gal(b1-4)GlcNAc(b1-3)Gal(b1-4)GlcNAc(b1-2)Man(a1-3)[Gal(b1-4)GlcNAc(b1-3)Gal(b1-4)GlcNAc(b1-3)Gal(b1-4)GlcNAc(b1-2)Man(a1-6)]Man(b1-4)GlcNAc(b1-4)GlcNAc
# Method in brief: (§1)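 Negative Z-scores can be read as non-binding. The Z-score is calculated within each array and then averaged across arrays of one protein sequence at different concentrations or buffers and across linkers. Arrays, 3228 in all, were curated from the Consortium for Functional Glycomics database and kept only where the protein sequence was available.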
# [2] = target: Gal(b1-4)GlcNAc(b1-3)Gal(b1-4)GlcNAc(b1-3)Gal(b1-4)GlcNAc(b1-2)Man(a1-3)[Gal(b1-4)GlcNAc(b1-3)Gal(b1-4)GlcNAc(b1-3)Gal(b1-4)GlcNAc(b1-2)Man(a1-6)]Man(b1-4)GlcNAc(b1-4)[Fuc(a1-6)]GlcNAc
# Method in brief: as §1
# [3] = target: Gal(b1-4)GlcNAc(b1-3)Gal(b1-4)GlcNAc(b1-3)Gal(b1-4)GlcNAc(b1-2)[Gal(b1-4)GlcNAc(b1-3)Gal(b1-4)GlcNAc(b1-3)Gal(b1-4)GlcNAc(b1-6)]Man(a1-6)[Gal(b1-4)GlcNAc(b1-3)Gal(b1-4)GlcNAc(b1-3)Gal(b1-4)GlcNAc(b1-2)Man(a1-3)]Man(b1-4)GlcNAc(b1-4)[Fuc(a1-6)]GlcNAc
# Method in brief: as §1
# [4] = target: Gal(b1-4)GlcNAc(b1-3)Gal(b1-4)GlcNAc(b1-3)Gal(b1-4)GlcNAc(b1-3)Gal(b1-4)GlcNAc(b1-2)Man(a1-3)[Gal(b1-4)GlcNAc(b1-3)Gal(b1-4)GlcNAc(b1-3)Gal(b1-4)GlcNAc(b1-3)Gal(b1-4)GlcNAc(b1-2)Man(a1-6)]Man(b1-4)GlcNAc(b1-4)GlcNAc
# Method in brief: as §1
# [5] = target: Gal(b1-4)GlcNAc(b1-3)Gal(b1-4)GlcNAc(b1-3)Gal(b1-4)GlcNAc(b1-3)Gal(b1-4)GlcNAc(b1-2)Man(a1-3)[Gal(b1-4)GlcNAc(b1-3)Gal(b1-4)GlcNAc(b1-3)Gal(b1-4)GlcNAc(b1-3)Gal(b1-4)GlcNAc(b1-2)Man(a1-6)]Man(b1-4)GlcNAc(b1-4)[Fuc(a1-6)]GlcNAc
# Method in brief: as §1
# [6] = target: Gal(b1-4)GlcNAc(b1-3)Gal(b1-4)GlcNAc(b1-3)Gal(b1-4)GlcNAc(b1-3)Gal(b1-4)GlcNAc(b1-2)[Gal(b1-4)GlcNAc(b1-3)Gal(b1-4)GlcNAc(b1-3)Gal(b1-4)GlcNAc(b1-3)Gal(b1-4)GlcNAc(b1-6)]Man(a1-6)[Gal(b1-4)GlcNAc(b1-3)Gal(b1-4)GlcNAc(b1-3)Gal(b1-4)GlcNAc(b1-3)Gal(b1-4)GlcNAc(b1-2)Man(a1-3)]Man(b1-4)GlcNAc(b1-4)[Fuc(a1-6)]GlcNAc
# Method in brief: as §1
# [7] = target: Gal(b1-4)GlcNAc(b1-3)Gal(b1-4)GlcNAc(b1-3)Gal(b1-4)GlcNAc(b1-3)Gal(b1-4)GlcNAc(b1-3)Gal(b1-4)GlcNAc(b1-2)Man(a1-3)[Gal(b1-4)GlcNAc(b1-3)Gal(b1-4)GlcNAc(b1-3)Gal(b1-4)GlcNAc(b1-3)Gal(b1-4)GlcNAc(b1-3)Gal(b1-4)GlcNAc(b1-2)Man(a1-6)]Man(b1-4)GlcNAc(b1-4)GlcNAc
# Method in brief: as §1
# [8] = target: Gal(b1-4)GlcNAc(b1-3)Gal(b1-4)GlcNAc(b1-3)Gal(b1-4)GlcNAc(b1-3)Gal(b1-4)GlcNAc(b1-3)Gal(b1-4)GlcNAc(b1-2)Man(a1-3)[Gal(b1-4)GlcNAc(b1-3)Gal(b1-4)GlcNAc(b1-3)Gal(b1-4)GlcNAc(b1-3)Gal(b1-4)GlcNAc(b1-3)Gal(b1-4)GlcNAc(b1-2)Man(a1-6)]Man(b1-4)GlcNAc(b1-4)[Fuc(a1-6)]GlcNAc
# Method in brief: as §1
# [9] = target: Gal(b1-4)GlcNAc(b1-3)Gal(b1-4)GlcNAc(b1-3)Gal(b1-4)GlcNAc(b1-3)Gal(b1-4)GlcNAc(b1-3)Gal(b1-4)GlcNAc(b1-2)[Gal(b1-4)GlcNAc(b1-3)Gal(b1-4)GlcNAc(b1-3)Gal(b1-4)GlcNAc(b1-3)Gal(b1-4)GlcNAc(b1-3)Gal(b1-4)GlcNAc(b1-6)]Man(a1-6)[Gal(b1-4)GlcNAc(b1-3)Gal(b1-4)GlcNAc(b1-3)Gal(b1-4)GlcNAc(b1-3)Gal(b1-4)GlcNAc(b1-3)Gal(b1-4)GlcNAc(b1-2)Man(a1-3)]Man(b1-4)GlcNAc(b1-4)[Fuc(a1-6)]GlcNAc
# Method in brief: as §1
# [10] = target: Gal(b1-4)GlcNAc(b1-3)Gal(b1-4)GlcNAc(b1-3)Gal(b1-4)GlcNAc(b1-3)Gal(b1-4)GlcNAc(b1-3)Gal(b1-4)GlcNAc(b1-3)Gal(b1-4)GlcNAc(b1-2)Man(a1-3)[Gal(b1-4)GlcNAc(b1-3)Gal(b1-4)GlcNAc(b1-3)Gal(b1-4)GlcNAc(b1-3)Gal(b1-4)GlcNAc(b1-3)Gal(b1-4)GlcNAc(b1-3)Gal(b1-4)GlcNAc(b1-2)Man(a1-6)]Man(b1-4)GlcNAc(b1-4)GlcNAc
# Method in brief: as §1
# [11] = target: Gal(b1-4)GlcNAc(b1-3)Gal(b1-4)GlcNAc(b1-3)GalNAc
# Method in brief: as §1
# [12] = target: Gal(b1-4)GlcNAc(b1-3)Gal(b1-4)GlcNAc(b1-3)[Gal(b1-4)GlcNAc(b1-3)Gal(b1-4)GlcNAc(b1-6)]GalNAc
# Method in brief: as §1
# [13] = target: Gal(b1-4)GlcNAc(b1-3)Gal(b1-4)GlcNAc(b1-6)[Gal(b1-3)]GalNAc
# Method in brief: as §1
# [14] = target: Gal(b1-4)GlcNAc(b1-3)Gal(b1-4)[Fuc(a1-3)]GlcNAc(b1-3)Gal(b1-4)[Fuc(a1-3)]GlcNAc
# Method in brief: as §1
# [15] = target: Gal(b1-4)GlcNAc(b1-3)GalNAc
# Method in brief: as §1
# [16] = target: Gal(b1-4)GlcNAc(b1-3)[Fuc(a1-3)GlcNAc(b1-6)]Gal(b1-4)Glc
# Method in brief: as §1
# [17] = target: Gal(b1-4)GlcNAc(b1-3)[Gal(b1-4)GlcNAc(b1-6)]Gal(b1-4)GlcNAc
# Method in brief: as §1
# [18] = target: Gal(b1-4)GlcNAc(b1-3)[GlcNAc(b1-6)]Gal(b1-4)GlcNAc
# Method in brief: as §1
# [19] = target: Gal(b1-4)GlcNAc(b1-6)Gal(b1-4)GlcNAc
# Method in brief: as §1
binder,measurement,setting,value
PX9961U-pdi-543-24-543 (Parabacteroides distasonis) (protein) EEPVGEFLPGQVESEENIEGIVTGAYAVLDGYYASDAINSGCSNWQFGDVVSDDAYKGGGGTGDQNQIHLMEIFNANPTGIDFEARWAALYEGIKRCNQAIRLLNGSEVKNKEQRLAEMRFLRGHYYFNLKIIYNQIPWIDETLVDPNEYNKKSNIEFSSDQLWEKILEEFSAAYKVLPESQADYGRPTKMAARAYMAKVYLYQSKWKECLEACDEVIQSGKYELFPDFRNVFLPENDNCSEIIFAIQLSINDGSPNNENGSYGDRLLPPGGPYPVYGFLRPTQNLVNAYKTDVKGLPYNDGKDVSENDYVDVRLDHTLARPNIPFMDVQLYDWTPREASVYGPYSPKKRLVSLNSTYYSPIWPYVNALNFYVIRYADLLLWRAEAAIETGDLETGRKYINMIRERAKNTQHVKTMDQSQDAANYKVGVYDEPFKSKNEAVQALRMERRLEMAHEGIRFFDLVRWGVADEVINAYIAKEKVFRSHLQNAHFVKGKHEYFPIPQSMIDICGTEVMKQNPGY,glycan array binding signal (z-score),[1],0.244
same,glycan array binding signal (z-score),[2],2.73
same,glycan array binding signal (z-score),[3],6.31
same,glycan array binding signal (z-score),[4],2.22
same,glycan array binding signal (z-score),[5],1.2
same,glycan array binding signal (z-score),[6],3.38
same,glycan array binding signal (z-score),[7],0.683
same,glycan array binding signal (z-score),[8],7.11
same,glycan array binding signal (z-score),[9],2.08
same,glycan array binding signal (z-score),[10],1.28
same,glycan array binding signal (z-score),[11],1.61
same,glycan array binding signal (z-score),[12],1.19
same,glycan array binding signal (z-score),[13],2.73
same,glycan array binding signal (z-score),[14],0.007
same,glycan array binding signal (z-score),[15],-0.37
same,glycan array binding signal (z-score),[16],0.418
same,glycan array binding signal (z-score),[17],0.882
same,glycan array binding signal (z-score),[18],-0.428
same,glycan array binding signal (z-score),[19],-0.226
